Assay results published in article PMC4336329 (PLoS ONE, 2015).
In all, about 310,000 compounds went through this assay and about 14,000 (4.5%) showed an effect of 50% or more. Effects have a minus sign here. Some of the results follow.

Target: human ether-à-go-go-related gene (hERG) potassium channel (human, UniProt Q12809)
Test: primary screen, population patch clamp on CHO cells stably expressing hERG
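Further: peak tail current of the secondary pulse compared with the same well before compound.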

human ether-à-go-go-related gene (hERG) potassium channel, sequence (Q12809 whole entry, looked up): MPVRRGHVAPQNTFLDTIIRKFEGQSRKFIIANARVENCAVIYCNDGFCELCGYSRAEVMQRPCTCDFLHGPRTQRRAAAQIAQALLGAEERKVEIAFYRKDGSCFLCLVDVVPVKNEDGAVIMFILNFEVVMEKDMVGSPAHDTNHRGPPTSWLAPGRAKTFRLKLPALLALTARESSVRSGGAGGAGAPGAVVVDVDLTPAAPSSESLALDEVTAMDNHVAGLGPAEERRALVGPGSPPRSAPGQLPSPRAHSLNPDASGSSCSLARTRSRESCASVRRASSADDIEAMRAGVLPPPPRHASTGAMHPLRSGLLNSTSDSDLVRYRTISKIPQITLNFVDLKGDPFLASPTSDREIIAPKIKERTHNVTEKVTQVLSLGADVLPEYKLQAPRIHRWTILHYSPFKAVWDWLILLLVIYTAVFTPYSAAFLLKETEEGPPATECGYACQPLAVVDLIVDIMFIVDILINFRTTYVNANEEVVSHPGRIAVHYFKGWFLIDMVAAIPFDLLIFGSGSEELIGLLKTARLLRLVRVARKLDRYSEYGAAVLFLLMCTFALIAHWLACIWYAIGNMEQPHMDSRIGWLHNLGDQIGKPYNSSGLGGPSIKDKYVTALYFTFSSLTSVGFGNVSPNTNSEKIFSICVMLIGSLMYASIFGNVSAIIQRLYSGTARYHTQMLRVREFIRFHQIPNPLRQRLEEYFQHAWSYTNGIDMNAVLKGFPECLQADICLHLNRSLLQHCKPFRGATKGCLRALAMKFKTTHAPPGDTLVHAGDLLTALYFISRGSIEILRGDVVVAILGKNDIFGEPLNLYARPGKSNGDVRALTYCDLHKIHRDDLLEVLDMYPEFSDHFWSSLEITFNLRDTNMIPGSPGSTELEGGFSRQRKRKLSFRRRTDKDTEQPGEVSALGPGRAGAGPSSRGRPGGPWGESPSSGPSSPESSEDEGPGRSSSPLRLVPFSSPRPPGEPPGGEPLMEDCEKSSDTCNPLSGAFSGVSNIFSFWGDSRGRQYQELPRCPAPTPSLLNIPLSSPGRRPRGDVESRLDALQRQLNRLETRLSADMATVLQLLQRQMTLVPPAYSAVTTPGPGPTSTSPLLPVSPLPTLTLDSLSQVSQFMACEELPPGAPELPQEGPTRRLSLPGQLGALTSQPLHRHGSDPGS

Row | SMILES | hERG current change (%, negative = inhibition) at 10uM [%]
1 | CC(C)OCCCNC(=O)CN1C(=O)/C(=C/c2ccccc2F)Oc2ccccc21 | 10.8
2 | CCOC(=O)N1CCN(C(=O)CCCCCn2c(=S)[nH]c3ccsc3c2=O)CC1 | -0.374
3 | COc1cccc2cc(C(=O)N(C)C)c(=O)oc12 | 14
4 | COc1ccc(C(=O)Nc2ccc(NC(=O)CSc3nnc(-c4ccncc4)n3C)cc2)cc1 | -7.57
5 | CC1CCN(C(=O)CCc2ccc(S(=O)(=O)NC(C)C)cc2)CC1 | -10.7
6 | CCN(CC(=O)NCc1cccs1)S(=O)(=O)c1ccc(F)c(F)c1F | -19.6
7 | O=C(CCC1N=C2c3ccccc3N=C(SCc3ccc(F)cc3)N2C1=O)NCc1ccco1 (stereo not shown) | -70.9
8 | Cc1csc(N2CCCC2c2nc3cc(C(F)(F)F)ccc3n2CCOCCO)n1 (stereo not shown) | -69.1
9 | C=CCn1c(C)cc(-c2csc(NC(=O)C3=COCCO3)n2)c1C | 7.97
10 | COC(=O)c1ccccc1-c1c2ccc(=[NH2+])cc-2oc2cc(N)ccc12.O.[Cl-] | -31.2
11 | CCCc1cc(=O)oc2cc(OCc3ccc(C(=O)O)o3)ccc12 | 23.1
12 | O=c1oc(-c2ccccc2)nc2ccsc12 | -3.61
13 | COc1cccc(NC(=S)NC(=O)/C=C/c2ccco2)c1 | 4.53
14 | FC(F)(F)c1cccc(Cc2noc(CN(Cc3ccccn3)CC3CCCO3)n2)c1 (stereo not shown) | -43.3
15 | CCOC(=O)c1cnc(-c2ccccc2)nc1-c1ccccc1 | 7.13
16 | Nc1nnnn1CC(=O)N/N=C/C=C/c1ccccc1 | 16.1
17 | CC1(C)Cc2ccccc2-c2nnc(-c3cccc(O)c3)n21 | 17.4
18 | CC(C)(C)n1nnnc1C(c1cccs1)N(Cc1cccnc1)CC1CCCO1 (stereo not shown) | -14
19 | Cc1ccc(C(=O)N2CCN(c3ccc(NC(=O)c4cccs4)cc3)CC2)cc1 | -47.6
20 | CSc1nnc(C2CCCN(CC(=O)Nc3ccccc3N3CCOCC3)C2)n1C(C)C (stereo not shown) | -27.5
21 | O=C(Nc1ccc(Cl)cc1)/C(=C1\CCCN1)[N+](=O)[O-] | 8.12
22 | Cc1csc(CN(C)C(=O)CC2C(=O)NCCN2CC(C)(C)C)n1 (stereo not shown) | 5.5

Row | SMILES | hERG current change (%, negative = inhibition) at 10uM [%]
23 | O=C(c1cnc2n(c1=O)CCS2)N(c1ccccc1)C1CCCCC1 | 7.87
24 | Cc1cc(NC(=O)c2cc3n(n2)C(C(F)(F)F)CC(c2ccco2)N3)n(-c2ccccc2)n1 (stereo not shown) | -1.73
25 | CCOc1ccc(NC(=O)C2CCN(C(=O)NCc3ccccc3)CC2)cc1 | -8.54
26 | O=C(NCC1CCCO1)c1c(O)c2ccccc2[nH]c1=O (stereo not shown) | -0.367
27 | CN1CCCN(C(=O)c2cccc(Br)c2)CC1 | 16.4
28 | CCc1ccc(N(C(=O)C(F)(F)F)C(C(=O)NC2CCCCC2)c2ccncc2)cc1 (stereo not shown) | 16.3
29 | CSCC[C@H](NS(=O)(=O)c1ccc(C)cc1)C(=O)N1CCC(C(=O)N[C@@H](Cc2ccc(O)cc2)C(=O)O)CC1 | 15.2
30 | COc1ccc(NC(=O)/C=C/c2c(Cl)nc3ccccn23)cc1 | -33.7
31 | Cc1c(C(=O)N2c3ccccc3CC2C)oc2ccccc12 (stereo not shown) | 17.3
32 | Nc1cc2c(cc1[N+](=O)[O-])OCCO2 | 5.64
33 | CN(C)CCNC(=O)c1ccc2c(=O)n(Cc3ccc(Cl)cc3)c(=S)[nH]c2c1 | -27.8
34 | COc1ccc(NC(=O)CN(C)C(=O)c2cc(-c3ccc(C)o3)nc3ccccc23)cc1 | -37.7
35 | COc1ccc(OCC(=O)Nc2ccc3nc(C)sc3c2)cc1 | 17.9
36 | Cn1c(=O)[nH]c(=O)c2c1nc(N1CCOCC1)n2CCCSc1ncccn1 | -6.88
37 | CCOc1ccc(NC(=O)C(CC(=O)O)Cc2ccc(Br)cc2)cc1 (stereo not shown) | 11.1
38 | COc1ccc(CNC(=O)C2=CCN(S(=O)(=O)c3ccc(C)cc3)CC2)cc1 | -34.2
39 | CC(C)(C)c1ccc(C(=O)NNC(=O)c2ccccc2Br)cc1 | 2.52
40 | Cn1cc(S(=O)(=O)Nc2ccc3c(c2)OCCO3)cn1 | 12.9
41 | Cc1ccc(NCCC(=O)c2ccc(Br)cc2)cc1 | 0.444
42 | CCC(=O)N(CCc1ccc(OC)c(OC)c1)Cc1cc2ccc(C)cc2n2nnnc12 | -76.8
43 | COc1ccccc1N1CCN(CC(O)COc2cccc3ccccc23)CC1.Cl.O (stereo not shown) | -61
44 | Cc1ccc(-c2nn(-c3ccccc3)cc2C(=O)N2CCOCC2)cc1C | -11.4

Row | SMILES | hERG current change (%, negative = inhibition) at 10uM [%]
45 | CCOC(=O)c1cnc2c(C#N)c(C)nn2c1-c1ccccc1 | -3.03
46 | CCCc1ccc(-c2cc(C(=O)NCCc3ccc(S(N)(=O)=O)cc3)c3ccccc3n2)cc1 | 13.2
47 | COc1ccc(CCNC(=O)c2cc(S(=O)(=O)N(C)C)ccc2N2CCCC2)cc1OC | 5.99
48 | Br.CCC(C)N1Cc2ccccc2C1=N (stereo not shown) | 2.75
49 | COc1cc(OC)cc(C(=O)Nc2cccc(NC(C)=O)c2)c1 | -1.56
50 | Cc1cccc(NC(=O)c2cc3n(n2)C(C(F)(F)F)CC(c2ccc4c(c2)OCO4)N3)c1 (stereo not shown) | 0.0954
51 | O=C(Nc1n[nH]c(=S)s1)c1ccc2ccccc2c1 | 27.1
52 | Cc1onc(-c2ccccc2)c1C(=O)Nc1ccc(OC(C)C)cc1 | -18.5
53 | COc1ccc(S(=O)(=O)CCc2nnc(NC(=O)c3cccs3)s2)cc1 | 8.55
54 | COc1cccc(C(=O)OCC(=O)Nc2ccccc2N2CCOCC2)c1 | -25
55 | CSc1nc2ccccc2cc1/C=C(\C#N)c1cccc(C)c1 | 20.4
56 | Cc1c(C)c2ccc(OCC(=O)NCc3ccccn3)cc2oc1=O | 4.07
57 | COc1ccc(C(=O)NCC(=O)OCC(=O)Nc2cc(OC)ccc2OC)cc1 | -1.67
58 | O=C(NC(NC1CCS(=O)(=O)C1)C(Cl)(Cl)Cl)c1ccc(Br)cc1 (stereo not shown) | -21.3
59 | COc1ccc(-c2cn[nH]c2C)cc1 | 13
60 | O=C(N/N=C/C(c1ccccc1)c1ccccc1)c1ccccc1F | 18.9
61 | O=C(CCn1c(=O)c2ccccc2n(CC(=O)NC2CCCC2)c1=O)NCCc1ccc(Cl)cc1 | 9.26
62 | CCC(=O)NC(=S)Nc1ccc(NC(=O)c2ccc(OC)cc2)cc1 | 7.69
63 | CCC(=O)NCCc1nc2ccccc2n1CC(=O)c1ccccc1 | 3.8
64 | Cc1ccccc1-n1c(CNc2ccccc2)nc2ccccc2c1=O | 11.7
65 | O=C(CCCC(=O)N1CCN(c2ccc([N+](=O)[O-])cc2)CC1)c1ccccc1 | -72
66 | CC(C)(C)c1ccc(COC(=O)CN2C(=O)NC3(CCCC3)C2=O)cc1 | -29.9

Row | SMILES | hERG current change (%, negative = inhibition) at 10uM [%]
67 | O=C(c1ccc2oc(CCc3ccccc3)nc2c1)N1CCC(O)CC1 | 14.9
68 | CN(C)S(=O)(=O)c1ccc(C(=O)NC2CCCc3ccccc32)cc1 (stereo not shown) | 3.09
69 | COc1ccc(CCNC(=O)C(C)n2nc(C)c3c(C)n(-c4ccc(C)cc4)nc3c2=O)c(OC)c1 (stereo not shown) | -58.6
70 | COc1ccc(/C=N/NC(=O)Nc2cccc3nsnc23)c(OC)c1 | 6.08
71 | CC(C)(C)NC(=O)c1cc(NC(=O)c2ccco2)cc(NC(=O)c2ccco2)c1 | -25.6
72 | CC(=O)Nc1ccc(S(=O)(=O)N(C#N)c2nc(C)cc(C)n2)cc1 | 16.6
73 | CC(C)n1cc(CN2CCC(n3nccc3NC(=O)C3CCCC3)CC2)cn1 | -1.92
74 | COC(=O)c1cccc(NC(=O)Nc2ccccc2OC)c1 | -5.2
75 | CC(C)=CCN1CCNC(=O)C1CC(=O)NCc1nc(C)c(C)s1 (stereo not shown) | 11.2
76 | O=C(Nc1nnc(CCc2ccccc2)s1)c1ccccc1F | 15.1
77 | Cc1cccn2c(=O)c(C(=O)NC3CCCCC3C)c(O)nc12 (stereo not shown) | -16.8
78 | CCCNC(=O)CSc1nc2ccccc2c(=O)n1CCC | 3.3
79 | CCC(=O)N1CCc2cc(S(=O)(=O)NCCN3CCC(C)CC3)ccc21 | -3.47
80 | Cc1ccc2oc(C(=O)NCCC3CCCCO3)c(C)c2c1 (stereo not shown) | -11.5
81 | CCCCn1c(-c2nn(C)c(C)c2Cl)n[nH]c1=S | 2.17
82 | CC(C)(C)CC(=O)Nc1ccccc1N1CCN(c2ccc(F)cc2)CC1 | 14.7
83 | N#C/C(=C(/O)COC(=O)CCCNC(=O)c1ccc(Cl)cc1)c1nc2ccccc2[nH]1 | 8.97
84 | COc1cc(-c2nc(-c3ccc(Br)o3)no2)cc(OC)c1OC | 16.7
85 | CCOC(=O)C[C@H]1c2ccc(C(F)(F)F)cc2S(=O)(=O)N1c1cccc(OC)c1 | -30.8
86 | CCCCc1c(C)nc(Nc2ccc(OC)cc2)[nH]c1=O | 1.33
87 | Cc1cc(C(F)(F)F)nn1CC(=O)NCc1cccs1 | 19.1
88 | CCc1cccc(NC(=O)COC(=O)/C=C/c2cccs2)c1 | -9.41
